The numbers were not newly measured in PMC7395068, “The evolution of strategies to minimise the risk of human drug-induced liver injury (DILI) in drug discovery and development” (Archives of Toxicology, 2020), which cites them from elsewhere.

Structures can show the parent of a compound that is named as a salt. Where two headings read alike, the source gives them in different places.

For data set [1] the following is noted: cited from earlier work.
For data set [2] the following is noted: cited from earlier work. This is another data set of the same source.
Data set [3] deals with primary human hepatocytes, NIH3T3 fibroblasts, BSEP, CYP3A4. The conditions noted are these: cited from earlier work.
The next data set has as its system human hepatocytes. The conditions noted are these: In vitro Assay; ref Xu 2008; cited from earlier work.
In the next data set the test system is PHH spheroids. The conditions noted are these: In vitro Assay; ref Vorrink 2018; cited from earlier work.
For data set [4] the following is noted: cited from earlier work. The source holds these as a separate data set.
For data set [5], the system named is HepG2 cells, primary human hepatocytes. The conditions noted are these: cited from earlier work.
Data set [6] concerns isolated mouse liver mitochondria. The conditions noted are these: In vitro Assay; ref Porceddu 2012; cited from earlier work.
[7] abbreviates: In vitro Assay, ref Schadt 2015.
Where [8] appears, read: binary in vivo human DILI call, ref Chen 2016.
[9] abbreviates: human DILI, LTKB DILIrank category, ref Chen 2016.
Where [10] appears, read: LTKB DILIrank category, ref Chen 2016.

Regarding `CC(C)(C(=O)O)c1ccc(C(O)CCCN2CCC(C(O)(c3ccccc3)c3ccccc3)CC2)cc1` (stereo not shown) [fexofenadine], the “In vivo DILI” value in data set [1] (in vivo) is reported as “-VE”. For the same compound, in data set [2] (in vivo), the “DILI +VE (5-8), DILI -VE (-4)” value is on record as “-VE” and the DILI severity category entry is reported as “vNo-DILI-Concern”.

In the case of `Cc1cnc(C(=O)NCCc2ccc(S(=O)(=O)NC(=O)NC3CCCCC3)cc2)cn1` [glipizide], in data set [2] (in vivo), the “DILI +VE (5-8), DILI -VE (-4)” value is “+VE” and the DILI severity category entry is given as “vLess-DILI-Concern”.

`CC(C)NCC(O)COc1ccc(CC(N)=O)cc1` (stereo not shown) [atenolol]: in data set [3] (setting [7]), the “Cellular toxicity (3T3 cells)” value is on record as “-VE”, the “Combined Assay” value is on record as “-VE”, the “GSH adduct HML” value is reported as “-VE” and the Hepatocyte cellular toxicity entry is recorded as “-VE”. In data set [3] (setting [7]), the “MitoTox 3T3” value is “-VE”, the “TDI CYP3A4” value was “-VE” and the hBSEP inhibition result was “-VE”. Further, in the data set on human hepatocytes, the “Structural based (HCI)” value is recorded as “-VE”. In addition, in data set [1] (ref Schadt 2015), the “In vivo DILI” value is “-VE”. Also, the “In vivo DILI” value in data set [1] (ref Vorrink 2018) was “-VE”. Also, the “In vivo DILI” value in data set [1] (ref Xu 2008) is “-VE”. Further, the “hLiMTs ATP <20 x Cmax” value with PHH spheroids is given as “-VE”. Also, in data set [2] (ref Chen 2016), the “DILI +VE (5-8), DILI -VE (-4)” value was “+VE” and the DILI severity category result is listed as “vLess-DILI-Concern”.

For the compound `CCCNCC(O)COc1ccccc1C(=O)CCc1ccccc1` (stereo not shown) [propafenone], the “Structural based (HCI)” value in the data set with human hepatocytes is given as “-VE”. For the same compound, the “In vivo DILI” value in data set [1] (ref Vorrink 2018) is “-VE”. Moreover, the “In vivo DILI” value in data set [1] (ref Xu 2008) was “-VE”. For the same compound, the “hLiMTs ATP <20 x Cmax” value with PHH spheroids is reported as “-VE”. Further, in data set [2] (ref Chen 2016), the “DILI +VE (5-8), DILI -VE (-4)” value is “+VE” and the DILI severity category entry is given as “vLess-DILI-Concern”.

In the case of `COc1ccc2cc([C@H](C)C(=O)O)ccc2c1` [naproxen], the “DILI Score (FDA) (1-8)” value in data set [4] (ref Chen 2011) is given as 3. Also, the “Cluster 1-6 +VE Assay” value in data set [5] (In vitro Assay, ref Garside 2014) was “-VE”. For the same compound, the “In vivo DILI” value in data set [1] ([…]), in data set [1] (ref Aleo 2019), in data set [1] (ref Garside 2014), in data set [1] (ref Gustafsson 2014), in data set [1] (ref O'Brien 2006) and in data set [1] (ref Persson 2013) was “+VE” each time. The “In vivo DILI” value in data set [1] (ref Proctor 2017) and in data set [1] (ref Williams 2019) was “+VE” each time. In data set [2] (ref Chen 2016), the “DILI +VE (5-8), DILI -VE (-4)” value was “+VE”. The DILI severity category entry in data set [2] (ref Chen 2016) was “vLess-DILI-Concern”.

Turning to `C[N+]1(C)CCC(OC(=O)C(O)(c2ccccc2)C2CCCC2)C1` (stereo not shown) [glycopyrrolate], the “DILI +VE (5-8), DILI -VE (-4)” value in data set [2] (setting [8]) is given as “-VE”. For the same compound, the DILI severity category entry in data set [2] (setting [9]) is “vNo-DILI-Concern”.

Turning to `CN(C)CCOC(c1ccccc1)c1ccccc1` [diphenhydramine], in the data set on human hepatocytes, the “Structural based (HCI)” value is given as “-VE”. Also, the “In vivo DILI” value in data set [1] ([…]), in data set [1] (ref Aleo 2019), in data set [1] (ref O'Brien 2006), in data set [1] (ref Persson 2013), in data set [1] (ref Schadt 2015) and in data set [1] (ref Vorrink 2018) was “-VE” each time. The “In vivo DILI” value in data set [1] (ref Xu 2008) is recorded as “-VE”. Also, in the data set with PHH spheroids, the “hLiMTs ATP <20 x Cmax” value is reported as “-VE”. Besides, the “DILI +VE (5-8), DILI -VE (-4)” value in data set [2] (ref Chen 2016) is “-VE”. In addition, the DILI severity category result in data set [2] (ref Chen 2016) is given as “vNo-DILI-Concern”.

Turning to `Nc1ccc(S(N)(=O)=O)cc1` [sulfanilamide], in data set [1] (assignment in O'Brien 2006, ref O'Brien 2006), the “In vivo DILI” value is on record as “-VE”.

On to `CCN(CC)CC(=O)Nc1c(C)cccc1C` [lidocaine], for which, in the data set on human hepatocytes, the “Structural based (HCI)” value is listed as “-VE”. The “In vivo DILI” value is “-VE” in data set [1] (ref Khetani 2012); “-VE” in data set [1] (ref O'Brien 2006); “-VE” in data set [1] (ref Persson 2013); “+VE” in data set [1] (ref Porceddu 2012); “-VE” in data set [1] (ref Vorrink 2018); “-VE” in data set [1] (ref Xu 2008). The “hLiMTs ATP <20 x Cmax” value in the data set on PHH spheroids is listed as “-VE”. Moreover, the “DILI +VE (5-8), DILI -VE (-4)” value in data set [2] (ref Chen 2016) is “-VE”. For the same compound, the DILI severity category entry in data set [2] (ref Chen 2016) was “vNo-DILI-Concern”. In addition, in data set [6], the “in vitro data EC2<=1x Cmax” value is “+VE”.

Take `O=C(O)c1cn(C2CC2)c2cc(N3CCNCC3)c(F)cc2c1=O` [ciprofloxacin]: the “DILI Score (FDA) (1-8)” value in data set [4] (in vivo) is given as 7. Besides, in data set [3] (setting [7]), the “Cellular toxicity (3T3 cells)” value is listed as “+VE”, the “Combined Assay” value was “+VE”, the “GSH adduct HML” value was “-VE” and the Hepatocyte cellular toxicity entry was “-VE”. Besides, in data set [3] (setting [7]), the “MitoTox 3T3” value is on record as “-VE”, the “TDI CYP3A4” value is given as “-VE” and the hBSEP inhibition result was “-VE”. Besides, the “In vivo DILI” value in data set [1] (in vivo) was “+VE”. Besides, in data set [2] (in vivo), the “DILI +VE (5-8), DILI -VE (-4)” value was “+VE” and the DILI severity category entry was “vMost-DILI-Concern”. For the same compound, the “in vitro data EC2<=1x Cmax” value in data set [6] is “+VE”.

As to `CN1[C@@H]2CC[C@H]1C[C@@H](OC(=O)C(CO)c1ccccc1)C2` (stereo partly shown) [atropine], in data set [3], the “Combined Assay” value is given as “-VE” and the Hepatocyte cellular toxicity result is recorded as “-VE”. In data set [2] (in vivo), the “DILI +VE (5-8), DILI -VE (-4)” value was “-VE” and the DILI severity category entry is on record as “vNo-DILI-Concern”.

As for `CC1=C(C(=O)O)N2C(=O)[C@@H](NC(=O)[C@H](N)c3ccccc3)[C@H]2SC1` [cephalexin], in data set [2] (setting [10]), the DILI severity category entry was “vLess-DILI-Concern”.

As to `CN1CC[C@]23c4c5ccc(O)c4O[C@H]2[C@@H](O)C=C[C@H]3[C@H]1C5` [morphine], the “In vivo DILI” value in data set [1] (in vivo) was “-VE”. In addition, in data set [2] (in vivo), the “DILI +VE (5-8), DILI -VE (-4)” value was “-VE” and the DILI severity category result is “vNo-DILI-Concern”.

For the compound `CN1C(=O)C(O)N=C(c2ccccc2)c2cc(Cl)ccc21` (stereo not shown) [temazepam], in data set [2] (in vivo), the “DILI +VE (5-8), DILI -VE (-4)” value is given as “-VE” and the DILI severity category result is given as “Ambiguous DILI-concern”.

For the compound `Cc1cc(NS(=O)(=O)c2ccc(N)cc2)no1` [sulfamethoxazole], the “in vitro data EC2<=1x Cmax” value in data set [6] is recorded as “+VE”.

On to `O=C(O)COCCN1CCN(C(c2ccccc2)c2ccc(Cl)cc2)CC1` (stereo not shown) [cetirizine], for which, in data set [2] (setting [10]), the DILI severity category result is listed as “vLess-DILI-Concern”.

Take `CCOC(=O)N1CCC(=C2c3ccc(Cl)cc3CCc3cccnc32)CC1` [loratadine]: in data set [1] (ref Aleo 2019), the “In vivo DILI” value is listed as “-VE”. Also, in data set [2] (ref Chen 2016), the “DILI +VE (5-8), DILI -VE (-4)” value is given as “-VE” and the DILI severity category result was “vNo-DILI-Concern”.

On to `O=C(O)COCCN1CCN([C@H](c2ccccc2)c2ccc(Cl)cc2)CC1` [levocetirizine dihydrochloride], for which the “DILI +VE (5-8), DILI -VE (-4)” value in data set [2] (setting [8]) was “+VE”. The DILI severity category result in data set [2] (setting [9]) is on record as “vLess-DILI-Concern”.

In the case of `CC(C)[N+]1(C)[C@@H]2CC[C@H]1C[C@@H](OC(=O)C(CO)c1ccccc1)C2` (stereo partly shown) [ipratropium], the “In vivo DILI” value in data set [1] (in vivo) was “-VE”.

As to `CN1C(=O)CN=C(c2ccccc2)c2cc(Cl)ccc21` [diazepam], in data set [2] (in vivo), the “DILI +VE (5-8), DILI -VE (-4)” value is “-VE” and the DILI severity category entry is reported as “Ambiguous DILI-concern”.

Take `CC(C)c1c(C(=O)Nc2ccccc2)c(-c2ccccc2)c(-c2ccc(F)cc2)n1CC[C@@H](O)C[C@@H](O)CC(=O)O` [atorvastatin]: in data set [3] (setting [7]), the “Cellular toxicity (3T3 cells)” value was “+VE”, the “Combined Assay” value is recorded as “-VE”, the “GSH adduct HML” value is on record as “-VE” and the Hepatocyte cellular toxicity entry is recorded as “+VE”. In addition, in data set [3] (setting [7]), the “MitoTox 3T3” value is given as “-VE”, the “TDI CYP3A4” value was “-VE” and the hBSEP inhibition entry is reported as “+VE”. Also, the “In vivo DILI” value in data set [1] ([…]) is given as “+VE”. The “In vivo DILI” value in data set [1] (ref Porceddu 2012) was “+VE”. The “In vivo DILI” value in data set [1] (ref Proctor 2017) was “+VE”. The “In vivo DILI” value in data set [1] (ref Schadt 2015) was “+VE”. For the same compound, in data set [2] (ref Chen 2016), the “DILI +VE (5-8), DILI -VE (-4)” value is given as “+VE” and the DILI severity category entry was “vMost-DILI-Concern”. Further, in data set [6], the “in vitro data EC2<=1x Cmax” value was “+VE”.

In the case of `CN1[C@@H]2C[C@@H](OC(=O)[C@H](CO)c3ccccc3)C[C@H]1[C@@H]1O[C@@H]12` [scopolamine], the “Cluster 1-6 +VE Assay” value in data set [5] is reported as “-VE”. Besides, the “In vivo DILI” value in data set [1] (in vivo) is given as “-VE”. Further, in data set [2] (in vivo), the “DILI +VE (5-8), DILI -VE (-4)” value is on record as “-VE” and the DILI severity category result is “vNo-DILI-Concern”.
